In all, about 320,000 compounds went through this assay and about 200 (0.062%) were called active. Inconclusive means that the source gave no clear call. Such entries were picked first, then a sample of the others. Calls come from the whole dose curve; as a rule, active = well fitted activation curve with a large enough effect; inconclusive = small, poorly fitted or top-dose-only effect; inactive = no such curve, though single readings can be large or run the other way. Potencies of inconclusive entries are left out as doubtful fits.
Assay: qHTS assay for re-activators of p53 using a Luc reporter; note: nearly all actives have a fitted effect of over 45% in size
Conditions: H1299 p53-A138V BP100-luciferase reporter, luminescence, 24 h; series mostly up to 92.2 µM
Summary of the method: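 p53-null H1299 cells stably carrying temperature-sensitive p53-A138V and a BP100-luciferase reporter were pinned with compounds (4-point, 1:5 series) and held 24 hrs at 37 deg C. Luminescence was read 10 min after detection reagent.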
For `O=C(CC(=O)c1ccccc1)Nc1ccccc1C(F)(F)F`, the Potency was inconclusive [activator, single point].
In the case of `CSc1ccccc1-c1nnc(-c2ccc(Cl)cc2Cl)o1`, the Potency is reported as inconclusive [activator, single point].
With `Cc1[nH][nH]c(=O)c1C(c1ccc(-c2ccc(Cl)c(C(=O)O)c2)o1)c1c(C)[nH][nH]c1=O` the Potency was “inactive”.
With `CCOC(=O)C1=C(N)OC2=C(C(=O)CC(C)(C)C2)C1c1ccoc1` (stereo not drawn) the Potency was inconclusive [activator, partial curve, poor fit].
For `CCCC(C(=O)NC1CCCC1)N(CC1CCCO1)C(=O)CNS(=O)(=O)c1ccc(F)cc1` (stereo not drawn), the Potency was “inactive”.
In the case of `Cc1ccc(NC(=O)c2ccc(S(=O)(=O)N3CCCCC3)cc2)nc1`, the Potency is reported as inconclusive [activator, partial curve, poor fit].
With `Cc1cnc(NC(=O)c2ccco2)s1` the Potency was “inactive”.
In the case of `COc1ccc(S(=O)(=O)N2CCCC2C(=O)Nc2nnc(-c3cccnc3)s2)cc1` (stereo not drawn), the Potency is reported as “inactive”.
In the case of `CC(C)OCCCNC(=O)C1CC(=O)N(CCc2ccccc2)C1` (stereo not drawn), the Potency is reported as inconclusive [activator, single point].
With `CN(C)/C(=N\S(=O)(=O)c1ccccc1)c1ccc(F)cc1` the Potency was inconclusive [activator, single point].
For `CC(C)Cn1c(N)c(C(=O)COC(=O)c2cc(-c3ccccc3)nc3ccccc23)c(=O)n(C)c1=O`, the Potency was “inactive”.
In the case of `Clc1ccc(Br)cc1-c1nc(-c2ccncc2)no1`, the Potency is reported as inconclusive [activator, partial curve, poor fit].
For `O=C(NC12CC3CC(CC(C3)C1)C2)N1CCN(c2nc(-c3ccccc3)cs2)CC1`, the Potency was “inactive”.
In the case of `CCN(CC)C(=O)Cn1cc(S(=O)(=O)CC(=O)Nc2cc(OC)ccc2OC)c2ccccc21`, the Potency is reported as “inactive”.
In the case of `CCC(C)Sc1ccc(-c2nc3ccccn3c2NCc2ccccc2)cc1OC` (stereo not drawn), the Potency is reported as “inactive”.
For `Cc1cccc(C(=O)OCC(=O)c2c(C)[nH]c3ccccc23)c1O`, the Potency was inconclusive [activator, single point].
With `CCS(=O)(=O)N1Cc2ccccc2CC1C(=O)Nc1nc2c(C)cccc2s1` (stereo not drawn) the Potency was inconclusive [activator, partial curve, poor fit].
In the case of `CCN(CC)S(=O)(=O)c1cc(NC(=O)CSc2nccn2C)ccc1C`, the Potency is reported as inconclusive [activator, single point].
With `COc1ccc(/C(N)=N/OC(=O)C2CCCCC2)cc1OC` the Potency was “inactive”.
For `COc1ccc(CCC(=O)Nc2ccc3c(c2)OCCO3)cc1`, the Potency was inconclusive [activator, single point].
With `O=C(CN1CCOCC1)NNC(=S)Nc1ccccc1` the Potency was “inactive”.
With `Oc1cccc2ccc(/C=C/c3ccc(Br)s3)nc12` the Potency was inconclusive [activator, partial curve, poor fit].
For `Cc1cccc(/C(N)=N/OC(=O)c2ccoc2C)c1`, the Potency was inconclusive [activator, partial curve, poor fit].
With `Cc1csc2nc(CSc3nc4ccccc4o3)cn12` the Potency was inconclusive [activator, partial curve, poor fit].
In the case of `O=C(Nc1cnccn1)c1cccs1`, the Potency is reported as inconclusive [activator, single point].
In the case of `Clc1ccc(-c2cnnc(-c3ccccn3)n2)cc1`, the Potency is reported as inconclusive [activator, full curve, poor fit].
For `CCc1ccc(C(=O)CSc2n[nH]c(-c3ccncc3)n2)cc1`, the Potency was “inactive”.
With `Cc1ccc(C(=O)N/N=C/c2ccc(-c3cccc(C(F)(F)F)c3)o2)cn1` the Potency was “inactive”.
With `CCOc1ccccc1C1C2CCCCC2(O)CCN1C(=O)c1cccs1` (stereo not drawn) the Potency was inconclusive [activator, full curve, poor fit].
In the case of `COc1ccccc1CNC(=O)COc1ccccc1C(=O)c1cnn(-c2ccccc2)c1`, the Potency is reported as inconclusive [activator, full curve, poor fit].
For `CCOc1ccc2cc(C(=O)c3ccccc3)c(=O)oc2c1`, the Potency was inconclusive [activator, partial curve, poor fit].
For `CCN=c1scc(-c2ccccc2)n1/N=C/c1ccccn1`, the Potency was inconclusive [activator, partial curve, poor fit].
With `COC(CNC(=O)c1ccc2c(=O)n(Cc3ccc(Cl)cc3)c(=S)[nH]c2c1)OC` the Potency was “inactive”.
With `CC(C)c1cc(C(N)=O)c(NC(=O)c2cccc(COc3ccc(Br)cc3)c2)s1` the Potency was inconclusive [activator, partial curve, poor fit].
For `Clc1ccccc1/C=N/N1CCN(Cc2ccccc2)CC1`, the Potency was inconclusive [activator, partial curve, poor fit].
In the case of `CC1CCN(c2ccc(NC(=O)c3ccc(Br)o3)cc2)CC1`, the Potency is reported as inconclusive [activator, partial curve, poor fit].
With `CCCCn1c(N)c(N(CCOC)C(=O)C2CCN(S(=O)(=O)c3ccccc3)CC2)c(=O)[nH]c1=O` the Potency was “inactive”.
With `CCCN1CCc2c(sc(NC(=O)c3ccc(S(=O)(=O)N4CCN(C(=O)OCC)CC4)cc3)c2C(N)=O)C1` the Potency was inconclusive [activator, partial curve, poor fit].
With `Cc1[nH]nc2c1/C(=N\O)CC(C)(C)C2` the Potency was “inactive”.
For `COc1ccc2c(c1)OC/C(=C/c1cccs1)C2=O`, the Potency was inconclusive [activator, partial curve, poor fit].
In the case of `O=C1CCC(C(=O)N2CCCC(N3CCN(c4cccc(C(F)(F)F)c4)CC3)C2)=NN1` (stereo not drawn), the Potency is reported as “inactive”.
In the case of `COC(=O)c1c(NC(=O)CN2CCC3(O)CCCCC3C2c2cc(OC)ccc2OC)sc(C)c1C` (stereo not drawn), the Potency is reported as “inactive”.
For `COc1cccc2sc3cc(C#Cc4ccccn4)ccc3c(=O)c12`, the Potency was inconclusive [activator, full curve, poor fit].
With `O=C(c1ccc([N+](=O)[O-])o1)N1CCN(c2nc3ccc(F)cc3s2)CC1` the Potency was “inactive”.
For `CCS(=O)(=O)Nc1cc(-c2nc3cccnc3s2)ccc1C`, the Potency was inconclusive [activator, full curve, poor fit].
In the case of `CC(=O)C(C)Oc1ccc2c3c(c(=O)oc2c1)CCCCC3` (stereo not drawn), the Potency is reported as inconclusive [activator, full curve, poor fit].
For `CCOC(=O)c1[nH]c(C)c(C(=O)Nc2ccc(Cl)cc2)c1C`, the Potency was inconclusive [activator, single point].
With `O=C(N/N=C/c1ccco1)c1cccc(N2CCCC2=O)c1` the Potency was inconclusive [activator, full curve, poor fit].
For `O=C(c1cc2ccccc2o1)N1CCCCCC1`, the Potency was inconclusive [activator, partial curve, poor fit].
In the case of `CCC(=O)c1ccc(OCC(=O)Nc2ccc3c(c2)OCCO3)cc1`, the Potency is reported as inconclusive [activator, partial curve, poor fit].
For `Fc1cc(F)cc(NC(=S)N2CCC(c3ccccc3)C2)c1` (stereo not drawn), the Potency was inconclusive [activator, single point].
For `COc1cccc(Oc2nnnn2-c2ccccc2)c1`, the Potency was inconclusive [activator, partial curve, poor fit].
In the case of `CNC(=S)N1N=C(c2ccccc2)CC1c1ccc(OC)c(OC)c1` (stereo not drawn), the Potency is reported as inconclusive [activator, partial curve, poor fit].
With `C/C(CC(=O)NC(C)(C)C)=N\NC(=O)c1ccccc1N` the Potency was inconclusive [activator, full curve, poor fit].
With `CC(C)(C)C(=O)N1CCC[C@H]1C(O)(c1ccccc1)c1ccccc1` the Potency was “inactive”.
For `CCOC(=O)c1cc(-c2ccccc2)nn1Cc1cc(CC)no1`, the Potency was inconclusive [activator, full curve, poor fit].
In the case of `COc1cccc(NC(=O)C(OC(=O)/C=C/c2ccc3c(c2)OCO3)c2ccccc2)c1` (stereo not drawn), the Potency is reported as “inactive”.
In the case of `N#CC1=C(N)Oc2ccc3ccccc3c2C1c1cccnc1` (stereo not drawn), the Potency is reported as “inactive”.
With `COc1ccc(C(=O)/C=C/Nc2ccc(C)cn2)cc1OC` the Potency was inconclusive [activator, full curve, poor fit].
In the case of `COc1ccc(CNC(=O)c2c(O)c3cccc4c3n(c2=O)CCC4)cc1OC`, the Potency is reported as inconclusive [activator, partial curve, poor fit].
For `Cc1ccc(Cn2c(SCc3cccnc3)nc3c2c(=O)n(C)c(=O)n3C)cc1`, the Potency was inconclusive [activator, single point].
In the case of `O=C(Nc1ccc2c(c1)ncn2C1CCCCC1)c1ccco1`, the Potency is reported as inconclusive [activator, partial curve, poor fit].
In the case of `Cc1cccnc1NC(=S)NC(=O)c1oc2ccccc2c1C`, the Potency is reported as inconclusive [activator, full curve, poor fit].
With `Cc1nonc1NCn1nnc2ccccc21` the Potency was inconclusive [activator, partial curve, poor fit].
With `COCCCNC(=O)COc1ccc(Br)cc1Cl` the Potency was inconclusive [activator, partial curve, poor fit].
For `COc1ccccc1C1/C(=C(\O)c2ccc3c(c2)OCCO3)C(=O)C(=O)N1Cc1cccnc1` (stereo not drawn), the Potency was inconclusive [activator, single point].
In the case of `O=C(O)CCc1ccc(S(=O)(=O)Nc2ccc(OCc3ccccc3)cc2)cc1`, the Potency is reported as “inactive”.
In the case of `c1c2c(cc3sc(N4CCCCC4)nc13)OCO2`, the Potency is reported as inconclusive [activator, full curve, poor fit].

Source: PubChem BioAssay AID504706 (National Center for Advancing Translational Sciences (NCATS), 2011)
Potency is the fitted concentration of half-maximal effect; tags give direction and shape of the fitted curve.
